# Where “and” joins values, the source holds several entries; their conditions need not be identical. Identical values can stand only once. Among all 230,000 compounds or so, about 3,600 (1.6%) were called active. Inconclusive results, whose numbers are uncertain, are shown with a selection of clear calls. The call rests on the fitted dose curve; in most records, active means well fitted inhibition curve with a large enough effect (not every such curve was filed as active); inconclusive means small, poorly fitted or top-dose-only effect, or another doubt; inactive means no such curve, though single readings can be large or run the other way. Potencies of inconclusive entries are doubtful fits and often do not repeat.
# Molecular target: Lysine-specific demethylase 4E (Homo sapiens) (UniProt B2RXH2)
# Assay: qHTS Assay for Inhibitors of Human Jumonji Domain Containing 2E (JMJD2E)
# Settings: JMJD2E catalytic domain, FDH-coupled NADH fluorescence (FDH is formaldehyde dehydrogenase); series mostly up to 57.1 µM; activity change, negative = inhibition: at the top concentration
# Further: nearly all actives have a fitted effect of over 50% in size.
# Potency means the concentration at half of the fitted maximal effect; tags describe the fitted curve by direction and shape.
# 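Wherever activity change, negative = inhibition is given: 0% = wells with enzyme and -100% = buffer wells without enzyme.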
# UniProt B2RXH2, sequence (B2RXH2 whole entry, looked up, the tested form may be a part): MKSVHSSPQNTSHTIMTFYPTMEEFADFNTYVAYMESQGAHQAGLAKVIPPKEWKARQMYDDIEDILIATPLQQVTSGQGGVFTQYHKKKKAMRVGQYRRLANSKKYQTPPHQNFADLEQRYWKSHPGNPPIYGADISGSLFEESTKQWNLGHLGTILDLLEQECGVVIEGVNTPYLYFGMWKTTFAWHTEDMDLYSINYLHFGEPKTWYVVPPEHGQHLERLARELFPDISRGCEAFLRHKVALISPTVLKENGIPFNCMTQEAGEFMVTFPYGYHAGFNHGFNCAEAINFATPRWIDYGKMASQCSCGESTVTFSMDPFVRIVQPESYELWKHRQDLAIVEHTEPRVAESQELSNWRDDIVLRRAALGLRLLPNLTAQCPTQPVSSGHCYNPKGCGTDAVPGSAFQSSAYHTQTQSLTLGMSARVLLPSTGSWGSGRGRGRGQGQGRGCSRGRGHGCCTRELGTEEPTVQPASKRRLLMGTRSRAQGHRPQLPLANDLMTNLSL
Structure (SMILES),Potency,"activity change, negative = inhibition"
Cc1ccc(-c2cc3nn(-c4ccccc4)c(N)c3c(=O)o2)cc1,"inconclusive: 28.2 µM [inhibitor, partial curve]",
CCc1nn(CCCC(=O)N2CCc3ccccc3C2)c(=O)c2cc3occc3n12,"inconclusive: 22.4 µM [inhibitor, partial curve]",
CCC[N+](CC#Cc1ccccc1)(CCC)CC(=O)c1ccc(Cl)cc1,"inconclusive: 14.1 µM [inhibitor, partial curve, poor fit]",
COc1cc(SC)ccc1C(=O)Nc1ccc(C)cc1C,"inconclusive: 0.631 µM [inhibitor, full curve, poor fit]",
Nc1c(C(=O)N2CCCC2)sc2nc3c(cc12)CCCCCC3,"inconclusive: 35.5 µM [inhibitor, partial curve]",
Clc1ccc(C2=NCCN2)cc1,,inactive: -6.58%
CCOC(=O)c1cnc2c(-c3ccccc3OC)c(C)nn2c1C,,inactive: -4.76%
COc1cccc(-n2cc3c(c2-c2ccccc2)c(=O)n(C)c(=O)n3C)c1,"inconclusive: 12.6 µM [inhibitor, partial curve]",
CC(=O)n1c(C=Nc2ccccc2)c(O)c2ccccc21,"inconclusive: 35.5 µM [inhibitor, partial curve]",
CCN(CC)CCNc1nc(-c2ccco2)c2c(c1C#N)CC(C)(C)OC2,"inconclusive: 28.2 µM [inhibitor, partial curve]",
Cc1oc(-c2cccs2)nc1CSCC(=O)NC1CC1,"inconclusive: 25.1 µM [inhibitor, partial curve]",
CCOc1ccc(C2NC(=O)C(C#N)=C(S)N2c2ccc(OC)cc2)cc1OC (centres undefined),"inconclusive: 25.1 µM [inhibitor, single point]",
Cc1ccc(-n2ncc3c(=O)n(CC(=O)NCc4ccco4)cnc32)cc1,"inconclusive: 22.4 µM [inhibitor, single point]",
COc1cccc2cc(C(N)=O)/c(=N/NC(=O)COc3ccc(Cl)cc3)oc12,,inactive: -8.95%
CCOC(=O)C1=C(C)NC(C)=C(C(=O)OCC)C1c1cc2ccc(C)cc2[nH]c1=O,"inconclusive: 25.1 µM [inhibitor, partial curve]",
O=C(/C=C/c1ccccc1)Nc1cccc(S(=O)(=O)Nc2ccccc2F)c1,,inactive: -15.7%
COc1cc(/C=N/n2nnnc2N)ccc1OCc1c(C)no[n+]1[O-],"inconclusive: 39.8 µM [inhibitor, single point]",
CCCn1cnc2c(c1=O)c1nc3ccccc3nc1n2CCc1ccccc1,"inconclusive: 8.91 µM [inhibitor, partial curve]",
Cc1ccc(-c2nc3nc4ccccc4nc3n2Cc2ccco2)cc1,"inconclusive: 28.2 µM [inhibitor, partial curve]",
CCNS(=O)(=O)c1cccc(C(=O)c2c(C)cc3ccccn23)c1,,inactive: -4.04%
OCCCc1nc2n(n1)C(c1ccccc1Cl)C=C(c1cccs1)N2 (centres undefined),"inconclusive: 31.6 µM [inhibitor, partial curve]",
CNNC(=S)Nc1cccc(C(F)(F)F)c1,,inactive: 4.78%
c1ccc(-c2cn3nc(-c4ccccc4)c(-c4ccccc4)nc3n2)cc1,"inconclusive: 35.5 µM [inhibitor, single point]",

Structure (SMILES),Potency,"activity change, negative = inhibition"
Nc1ccc2oc(-c3ccc4nc[nH]c4c3)nc2c1,"inconclusive: 31.6 µM [inhibitor, partial curve]",
Cn1cnc2cc(NCc3cccs3)ccc21,"inconclusive: 35.5 µM [inhibitor, single point]",
COc1ccc(Oc2c(C)oc3c(CN4CCOCC4)c(O)ccc3c2=O)cc1,"inconclusive: 25.1 µM [inhibitor, partial curve]",
Nc1nccc(-c2cccs2)n1,"inconclusive: 25.1 µM [inhibitor, partial curve]",
COC(=O)c1ccccc1NC(=O)N1CCN(c2ccc(F)cc2)CC1,"inconclusive: 39.8 µM [inhibitor, single point]",
CCN1C(=O)c2ccc(-c3nc4ccccc4c(=O)o3)cc2C1=O,"inconclusive: 8.91 µM [inhibitor, single point]",
C=CCSc1n[nH]c2nc3c(c(=O)n12)C1(CCCC1)Cc1ccccc1-3,"inconclusive: 14.1 µM [inhibitor, partial curve]",
COC(=O)/C(C#N)=C\c1c(OC)[nH]c2ccccc12,"inconclusive: 25.1 µM [inhibitor, single point]",
COc1ccc(C2CC(c3ccccc3)=NN2C(=O)COC(=O)/C=C/c2ccc(O)c(OC)c2)cc1 (centres undefined),"inconclusive: 14.1 µM [inhibitor, partial curve]",
CC(C)NCCCCOc1ccc(Br)cc1Cl,,inactive: 4.58%
Cc1cccc(NS(=O)(=O)c2ccccc2)n1,"inconclusive: 31.6 µM [inhibitor, partial curve]",
COc1ccc(NS(=O)(=O)c2ccc(NC(=S)NC(=O)/C=C/c3ccccc3)cc2)nn1,,inactive: -3.97%
COc1ccc(OC)c(C2Nc3c(Cl)ccc(C(=O)O)c3C3C=CCC32)c1 (centres undefined),"inconclusive: 39.8 µM [inhibitor, single point]",
Cn1cccc1Cc1nnc(SCC(=O)N2CCCCCC2)n1CCc1ccccc1,,inactive: 0.568%
CCCN1CCC(=NNc2ccc(S(N)(=O)=O)cc2[N+](=O)[O-])CC1,,inactive: 12.3%
Cc1cccc(C2C3=C(Nc4[nH]n(-c5ccccc5)c(=O)c42)c2ccccc2C3=O)c1 (centres undefined),,inactive: 2.73%
O=C(/C=C/c1ccc(F)cc1)NC(=S)NNC(=O)c1cccnc1,"inconclusive: 35.5 µM [inhibitor, single point]",
NC(=O)c1cc2c(s1)-c1cc(Cl)ccc1SC2,"inconclusive: 22.4 µM [inhibitor, partial curve]",
COC(=O)CCCC1=CC2=C(c3ccccc3)C(=O)C(C)(OC(=O)C3CCCC3)C(=O)C2=CN1CCCCO (centres undefined),"inconclusive: 25.1 µM [inhibitor, single point] and inconclusive: 3.55 µM [inhibitor, partial curve]",
O=C1Cc2ccccc2Sc2ccccc21,"inconclusive: 25.1 µM [inhibitor, single point]",
CCOC(=O)Nc1nnc(CCc2ccccc2)s1,"inconclusive: 31.6 µM [inhibitor, single point]",
c1ccc(SCCN2CCc3ccccc3C2)cc1,"inconclusive: 39.8 µM [inhibitor, single point]",
COCCN(C)C(=O)CCc1nnc(Cc2ccc(-c3ccccc3)cc2)o1,,inactive: -0.526%

Structure (SMILES),Potency,"activity change, negative = inhibition"
CCCC[n+]1ccn(-c2nc3ccccc3nc2[N-]S(=O)(=O)c2ccc(Cl)cc2)c1,"inconclusive: 28.2 µM [inhibitor, partial curve]",
COc1ccccc1C1=NOC(C)(c2sc(-c3ccc(Cl)cc3)nc2C)C1 (centres undefined),"inconclusive: 35.5 µM [inhibitor, single point]",
CN1CCN(C(=O)/C(=C/c2ccccc2)c2ccccc2)CC1,,inactive: 7.46%
O=C(Cc1cccs1)N/N=C/C(Cl)=C/c1ccccc1,"inconclusive: 28.2 µM [inhibitor, single point]",
CCCCC(=O)Nc1cc(OC)c(NC(=O)C2CCCCC2)cc1OC,,inactive: 3.33%
CCOC(=O)N1CCN(C(=O)c2cc(-c3ccc(OCC)cc3)nc3ccccc23)CC1,"inconclusive: 28.2 µM [inhibitor, partial curve]",
CCOC(=O)N1CCC(NC(=O)CSCc2nc(-c3sccc3C)oc2C)CC1,"inconclusive: 28.2 µM [inhibitor, partial curve]",
Cc1cc(Cl)c(OCCCN(C)C)c(Br)c1,"inconclusive: 25.1 µM [inhibitor, single point]",
COc1cc(/C=N/NC(=O)c2ccc(Cl)cc2)ccc1OCC(=O)N1CC(C)OC(C)C1 (centres undefined),"inconclusive: 25.1 µM [inhibitor, single point]",
Nc1ccc2oc(-c3cccc4ccccc34)nc2c1,,inactive: -7%
COC(=O)CCCC1=CC2=CC(=O)C(C)(OC(=O)c3cccs3)C(=O)C2=CN1CC(C)C (centres undefined),"inconclusive: 28.2 µM [inhibitor, single point]",
N#CCc1c(C#N)c(N)nc(N2CCCC(CO)C2)c1C#N (centres undefined),"inconclusive: 39.8 µM [inhibitor, single point]",
O=C1CC(c2ccccc2)Cc2nc(N3CCc4ccccc4C3)ncc21 (centres undefined),"inconclusive: 39.8 µM [inhibitor, single point]",
CSCCC(/C(O)=C(\C#N)c1nc2ccccc2[nH]1)N1C(=O)c2ccccc2C1=O (centres undefined),"inconclusive: 35.5 µM [inhibitor, single point]",
O=C(NNC(=S)NC1CCCCC1)c1ccccc1O,"inconclusive: 25.1 µM [inhibitor, partial curve]",
CNC(=S)NNc1nncc2ccccc12,,inactive: -14.1%
COc1ccc(-c2csc(Cc3nc(O)cs3)n2)cc1,"inconclusive: 39.8 µM [inhibitor, single point]",
O=C(CCl)c1ccc(Cc2ncc(C(F)(F)F)cc2Cl)s1,,inactive: -0.731%
COc1ccc(CC(=O)N2N=C(C)CC2(O)c2cccnc2)cc1 (centres undefined),"inconclusive: 39.8 µM [inhibitor, single point]",
CC1CC2(C)Oc3ccccc3C3OCC1(COC(=O)Nc1ccccc1)C(C)C32 (centres undefined),,inactive: -1.44%
CCn1c(-c2cc(Br)cc(OC)c2O)nc2cc(S(=O)(=O)N(C)C)ccc21,"inconclusive: 35.5 µM [inhibitor, single point]",
CCCCN(C)C(=S)Nc1ccc2nc3n(c(=O)c2c1)CCCCC3,"inconclusive: 35.5 µM [inhibitor, single point]",
Cc1ccc(CN2C(=O)/C(=C\c3ccc(C(=O)NCc4cccnc4)cc3)Oc3ccccc32)cc1,"inconclusive: 28.2 µM [inhibitor, partial curve]",

# From PubChem BioAssay AID2147 (National Center for Advancing Translational Sciences (NCATS), 2009)
